Data on 22 molecules can be found in PMC12136788.

The list shows a part of the results.

T1: UNK ZnF1-3 (human, UniProt Q9C0B0 31-174)
T1 sequence: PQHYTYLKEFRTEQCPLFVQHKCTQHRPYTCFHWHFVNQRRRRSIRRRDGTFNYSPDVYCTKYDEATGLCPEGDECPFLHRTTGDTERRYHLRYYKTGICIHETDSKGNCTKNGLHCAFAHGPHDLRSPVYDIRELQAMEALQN

B1: chr1:163295886:163295887:+_ENSG00000143228_ENST00000271452|hu_hu|motif|central (ssRNA)
RNA: GGGAGUUCUACAGUCCGACGAUCGGUUUUUACCAUCAGCUCCUGUUAAGAUCUUAUUGCGAAUAUGAAUCACAAUCUCAGCGGCAUUAUAUCUGGGGAAAGACAAAGUUUCCAUCUUGGAAGUUUCCUGUUAAUCUCCCAGGCCAACAGAGGAUUGAGCAUCA
B2: chr2:37284132:37284133:-_ENSMUSG00000066798_ENSMUST00000053098|mus_mus|FALSE|FALSE (ssRNA)
RNA: GGGAGUUCUACAGUCCGACGAUCAUACAGAUUGGGUGGGGGGCAACACUACAUGUGCUGCAUUUUUAUAAAAUGUGUCUAAAAAAGUCAUUGAUUUGAUUACAGUAGAUUCUGCCGUUUGAGAUCAGGCCUAGAUAAUUUUUCCAACAGAGGAUUGAGCAUCA
B3: chr3:176740097:176740098:-_ENSG00000177565_ENST00000430069|hu_mus|hu_hu_hu_mus_True|48_108 (ssRNA)
RNA: GGGAGUUCUACAGUCCGACGAUCUGUUUUUUACACCACAAAAGGAGGCACUUUCAGUAUCUGCAAAAGGUGUUUAGUCCUAAAACAUACUUACCUAGAGGAUAACUCAGGAAAACAAUCUGUUACACUCUAAGACCUACUCCACAACAGAGGAUUGAGCAUCA
B4: chr1:6238667:6238668:+_ENSMUSG00000025907_ENSMUST00000027040|mus_mus|motif|central (ssRNA)
RNA: GGGAGUUCUACAGUCCGACGAUCCAUCAUUUCUGGACUUUGUGGAUCACUUAUAGGGUUUGGAGACGAUAAAUUUUCUUCGGUCACAAACUCAUUCACAGCAGACAUAAAGUCAGACUCAGGGCUUUCUGCUAAUGAAUCCAACAACAGAGGAUUGAGCAUCA
B5: chr1:52991732:52991733:-_ENSG00000134744_ENST00000257177|hu_hu|FALSE|FALSE (ssRNA)
RNA: GGGAGUUCUACAGUCCGACGAUCUUUAGGACCUGGAAGGUUGGCAGCAUUUACUUUACAUGAUUUAACUUCUGUUUUUUCUAUACAAAUAUCAUUUUGCUUAUUUUUUUUACUACUAUUCCUAUUUGGAGAGCUGUUCUCAAUCAACAGAGGAUUGAGCAUCA
B6: chr2:219093484:219093485:+_ENSG00000163466_ENST00000315717|hu_hu|FALSE|FALSE (ssRNA)
RNA: GGGAGUUCUACAGUCCGACGAUCGAAUUUCAAAGAAAUACUGACCAUCACUUUUGUUUUGUCUCCAUUAGGAUUUGAAAUAUGAUAGAGGACCCCAUCGAAAUCUGCAAAUGUUACUUCUACUGCUUCCGGUUUGUUUCCGGCCAACAGAGGAUUGAGCAUCA
B7: chr10:33214929:33214930:-_ENSG00000150093_ENST00000302278|hu_hu|hu_hu_hu_mus_True|18_88 (ssRNA)
RNA: GGGAGUUCUACAGUCCGACGAUCAACAAGUUCAUUGAAAAACUCUCCUUUAUUAGUAAGACUAAGCACAUUUUUGUAGCUAAAUGGGCUGGUGCAGUUUUGUUCACUUGUACAAGGGUUCCUGAGCUUUGCUGGGGUUGUGCUCAACAGAGGAUUGAGCAUCA
B8: 39510194_39511413_1180_CDS_ENSG00000109814_ENST00000316423|human|control|control (ssRNA)
RNA: GGGAGUUCUACAGUCCGACGAUCAUAACGAGCUACUUCUGGCAAAUUCAGAGCCUCACAGAGAUAAACCAAAUUCAGAACAUCCUUUUGGAAACAGCUCCCACCAAACCCAACACUGGCUUUUAGAAACUUGUUUCCAAUUCUCAACAGAGGAUUGAGCAUCA
B9: 142886085_142886205_9081_CDS_ENSMUSG00000031004_ENSMUST00000033310|mouse|control|control (ssRNA)
RNA: GGGAGUUCUACAGUCCGACGAUCAGGUACAGGCUUCUCAUCUGUUGCUUCCUGCUUUGGUGCUAAAGAGCGCAAAGCCCUGGUUCUCACAAUGCUUCCAUCUCUUGCAGACUUCCUCUUCGGGGACAGCAAAGGGUUGCUUUUCAACAGAGGAUUGAGCAUCA
B10: 150918690_150919650_944_CDS_ENSG00000033050_ENST00000287844|human|control|control (ssRNA)
RNA: GGGAGUUCUACAGUCCGACGAUCCAUGUGAAUGAUAUUGGUACAGACACCAUUCAGAAAAUCCUGGGAAUGGGAGACGAGGACCAAGAUGCGCUUAAAAGUUUUUAGUUCUUCUUCCAACCACACGCAAGCAUCUAGGUCCAGCAACAGAGGAUUGAGCAUCA
B11: chr11:2966284:2966285:-_ENSG00000205531_ENST00000380542|hu_hu|motif|central (ssRNA)
RNA: GGGAGUUCUACAGUCCGACGAUCAGGUGACCCGCAGCAGCUCUCACCUGGGCUGGUGUGUCACAACCCUGACCCACCCCGGAAAAAAAAAAAAAAUCAAGAAGCAACAUCCUAAGGAGAACAGGGCCCUACUCUACACAGCCCCAACAGAGGAUUGAGCAUCA
B12: chr12:39756943:39756944:-_ENSG00000139116_ENST00000544797|hu_mus|hu_hu_hu_mus_False|58_108 (ssRNA)
RNA: GGGAGUUCUACAGUCCGACGAUCGGUUUGGCUAUUACCCCCAAGGGAAUCCUGCAAGAGUCUUGUCAGCUUAGAGUCUCUAUAGGGGACAUGGGUGGCUCUCUUGCUCUUGUCCCCCAAGGCGCUGAUUACAUUCCCAAGAGCCAACAGAGGAUUGAGCAUCA
B13: chr4:88367131:88367132:-_ENSMUSG00000070923_ENSMUST00000094993|mus_hu|motif|central (ssRNA)
RNA: GGGAGUUCUACAGUCCGACGAUCUUGGUAAUUGCUAGCUUCCAAAAGCAAAUUCACGCAGGUAUUGUCUGUUCUCAUGAAAUCGGCUGUCUGCACGUAAUUGAUGAGAUCCUGUGGUGUCAUCAGUGGAAAUCGAAUAUUCUUCAACAGAGGAUUGAGCAUCA
B14: chr17:65740002:65740003:+_ENSG00000130935_ENST00000581375|hu_hu|hu_hu_hu_mus_False|58_78 (ssRNA)
RNA: GGGAGUUCUACAGUCCGACGAUCAACAAAUCUUUCUUCCCUGGACGAACAGGAAGACAUAAAAGAGAAAAAAUAUAUGUCUAUGAAGUUAGGUGUGGUGGCCACACCUUUACUCCCAGCACUUUGGGAGGUGGAUCUCUGAGUCAACAGAGGAUUGAGCAUCA
B15: 53011563_53012086_1442_CDS_ENSMUSG00000061136_ENSMUST00000076313|mouse|control|control (ssRNA)
RNA: GGGAGUUCUACAGUCCGACGAUCCUCCCCAAACAUUUGCUCAGCUUUUUUGUAUCUGGUUGUGGAAGUCAUUUUCUCAUGAUUUUCAAGAAAACGCUGAAAAGAUUCCUUAGCUUCUUUGUAUUUUGAUCUUGCUUCUUCUUUCAACAGAGGAUUGAGCAUCA
B16: chrX:20248820:20248821:+_ENSMUSG00000001924_ENSMUST00000001989|mus_mus|mus_mus_mus_hu_True|88_98 (ssRNA)
RNA: GGGAGUUCUACAGUCCGACGAUCGGCGAAGUCCGUCAUCACAAAGUCAGGCUCUACCAGUGAGGCCACCAAGGAUUUAAAGCUAAUCUUCUUAGGUACUUUGACCUGACUGACGAUGCCUCCACGGAUGUAGUCGGAGAAGUUCAACAGAGGAUUGAGCAUCA
B17: chr4:144460044:144460045:+_ENSG00000153147_ENST00000283131|hu_mus|hu_hu_hu_mus_False|48_78 (ssRNA)
RNA: GGGAGUUCUACAGUCCGACGAUCACGGUCCAUAGCCUGAAGAUCAACUUGCGGAUUCCAAUCAGAAUCAUAUAAAAUGACUACAUCAGCAGUCGCAAGAUUGAUGCCCAGACCACCAGCACGUGUGCUUAGCAUAAAUACAAACAACAGAGGAUUGAGCAUCA
B18: chr1:245021434:245021435:-_ENSG00000153187_ENST00000283179|hu_mus|FALSE|FALSE (ssRNA)
RNA: GGGAGUUCUACAGUCCGACGAUCGAUAAAAGUACAGUCUUCAGGUAUUGGAAAGUAUGGCUUUUCCUUUUGACCGAAAUUAAAUUCAACUGCACAGUUAUGGCAGAGAACAUGUGGGAAUAGUGGCCGGUCAGCAAGAACUUCCAACAGAGGAUUGAGCAUCA
B19: chr14:89338683:89338684:+_ENSG00000165533_ENST00000346301|hu_hu|hu_hu_hu_mus_False|68_68 (ssRNA)
RNA: GGGAGUUCUACAGUCCGACGAUCGUGGUUGUUGUGGACCAGGGCCAGCCUGAAGCAUUGGUGGGCCAAAUUUGUAUCUCCGAUUCCCACAGCUAUGUGCCCCAGGUUGUACCAGACAUCAGCUGCCUCUUCUUCAUUUUCAGCCAACAGAGGAUUGAGCAUCA
B20: chr5:128448638:128448639:+_ENSG00000066583_ENST00000173527|hu_mus|hu_hu_hu_mus_False|58_98 (ssRNA)
RNA: GGGAGUUCUACAGUCCGACGAUCGGCACUCGCCUUAAUUAGAUUCUGAAUUUCCUUGAACUUCGGGUGGUCUUUGUCAGCUACCAGCUGUAGGAGGACAGCCUCACUAGUGGUCACGAUGAUCCCAGUGCGGGCAAGACGCUCCAACAGAGGAUUGAGCAUCA
B21: chr3:32586495:32586496:-_ENSG00000144635_ENST00000273130|hu_hu|motif|central (ssRNA)
RNA: GGGAGUUCUACAGUCCGACGAUCUUUCUGUAAAGAAUCCAAAGCAGUCCAAGGCUUUGACAUGUCAACAACCAGCAUAACGGGAGUAUCCUUCAGAGAUACGGCAUCCAGUGAAAAUUUAAGGAGGCCUUUGUGAUAUAGGUCCAACAGAGGAUUGAGCAUCA
B22: 70229870_70231617_115_3pUTR_ENSG00000138346_ENST00000358410|human|control|control (ssRNA)
RNA: GGGAGUUCUACAGUCCGACGAUCCUGUGCUCAGAACUGUUCUUGGAAAGGAAGCUACCACUUUCUUCUGAAAUAGCUCCGCCGGCAGCUCCGCCUCCUCCCAAAAACUCUUCUCCAUCAGCAGCUCCAGUUCGUUCAGCUGCUCAACAGAGGAUUGAGCAUCA

For the assay, the target named is T1, UNK ZnF1-3. Put plainly: nsRBNS (natural sequence RNA bind-n-seq); RBNS binding buffer (assumed for nsRBNS): 25 mM Tris pH 7.5, 150 mM KCl, 3 mM MgCl2, 0.01% Triton X-100, 500 ug/ml BSA, 20 U/ml SUPERase-In, 4 C; UNK is unkempt and MSI1 is Musashi-1; names of the RNAs are library labels; protein concentration not given here; high values mean tight binding.
On to B1, for which the binding signal was determined as 0.922 enrichment R.

B2: the binding signal was found to be 1.49 enrichment R. The same measure for B3: 1.02 enrichment R; for B4: 1.09 enrichment R; for B5: 0.812 enrichment R. Under B6 stands 1.29 enrichment R; under B7, 0.815 enrichment R. The same measure for B8: 1.21 enrichment R. B9: the binding signal was 0.721 enrichment R.

B10 yielded a binding signal of 0.662 enrichment R. The same measure for B11: 3.14 enrichment R; for B12: 0.763 enrichment R; for B13: 0.896 enrichment R. The same measure for B14: 0.869 enrichment R. The same measure for B15: 0.433 enrichment R. The molecule B16 returned a binding signal of 1 enrichment R. As to B17, the binding signal stood at 1.04 enrichment R. The same measure for B18: 0.939 enrichment R. The same measure for B19: 0.724 enrichment R; for B20: 0.785 enrichment R. The same measure for B21: 1.68 enrichment R; for B22: 0.761 enrichment R.
